The source of these data is the antibiotic and cytotoxicity screens of Wong et al. (2023).

Molecules are shown by their SMILES. The list shows a part of the results.

The test system of this assay is S. aureus RN4220. In words: growth inhibition call (relative growth <= 0.2). The conditions noted are these: 50 µM.
For `C=CCC[C@H](Cc1ccc(F)cc1)C(=O)OC[C@@H](Cc1c[nH]c2ccccc12)NC(=O)[C@@H](CC=C)CC(=O)N[C@@H](CO)Cc1ccccc1`, the growth inhibition call was “inactive”.

Regarding `C[C@H]1CN([C@@H](C)CO)C(=O)c2cccc(NS(=O)(=O)c3cccs3)c2O[C@@H]1CN(C)Cc1ccc(Cl)c(Cl)c1`, the growth inhibition call was “inactive”.

Consider `Cc1noc(C)c1S(=O)(=O)N(C)C[C@H]1OCCCC[C@H](C)Oc2ccc(NC(=O)Nc3ccccc3)cc2C(=O)N([C@H](C)CO)C[C@@H]1C`, for which the growth inhibition call was “inactive”.

With `C[C@@H]1CN([C@@H](C)CO)C(=O)c2cccc(NC(=O)c3cnccn3)c2O[C@@H]1CN(C)CC1CCCCC1`, the growth inhibition call is “inactive”.

`NC(=O)C[n+]1cccc2ccccc21`: the growth inhibition call was “inactive”.

For the compound `COc1ccc(NC(=O)Nc2ccc3c(c2)C(=O)N([C@@H](C)CO)C[C@@H](C)[C@H](CN(C)Cc2ccc(C(=O)O)cc2)OCCCC[C@@H](C)O3)cc1`, the growth inhibition call was “inactive”.

Turning to `CC(C)CC#Cc1ccc2c(c1)O[C@H](CN(C)C(=O)Cc1cccnc1)[C@@H](C)CN([C@H](C)CO)S2(=O)=O`, the growth inhibition call was “inactive”.

On to `CC(C)c1ccc2c(c1)C(=O)[C@H](N)CCO2`, for which the growth inhibition call is “inactive”.

For `Oc1c(Cl)cc(Cl)c2cccnc12`, the growth inhibition call was “inactive”.
